# Over roughly 81,000 sequences, “one-hybrid fitness for binding NBS DNA” has its median near -0.1; the highest 2% begin near 0.36. The list shows a part of the results.
# B1: Caulobacter ParB omega fusion; a variant is named by its letters at X, in order, B8GW30 (parent)
# chain: MESVVVGEPGMSEGRRGLGRGLSALLGEVDAAPAQAPGEQLGGSREAPIEILQRNPDQPRRTFREEDLEDLSNSIREKGVLQPILVRPSPDTAGEYQIVAGERAWRAAQRAGLKTVPIMVRELDDLAVLEIGIIENVQRADLNVLEEALSYKVLMEKFERTQENIAQTIGKSXSHVANXMRLLXLPDEVQSYLVSGELTAXHARAIAAAADPVALAKQIIEGGLSVRETEALARKAPNLSAGKSKGGRPPRVKDTDTQALESDLSSVLGLDVSIDHRGSTGTLTITYATLEQLDDLCNRLTRGI
# Variants of: B1
# Assay: one-hybrid fitness for binding NBS DNA (the Noc-binding site; scaled: cognate 1, non-cognate 0); higher = stronger binding
# Conditions: with NBS DNA site
# In short: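 Selection: bacterial one-hybrid in E. coli USO, HIS3 reporter with the site 19 bp from the promoter, 48 hours at 37°C on M9-minus-histidine plus 0.1 mM IPTG and 5 mM 3-AT. Libraries were Caulobacter ParB with four randomised specificity codons, sequenced on Illumina before and after selection. Fitness is the rescaled log change in variant-to-wild-type read ratio, anchored to the cognate and non-cognate sites.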
row,Variant,one-hybrid fitness for binding NBS DNA
1,VKRC,≤ 0.2
2,WVIR,≤ 0.2
3,QGAR,0.255
4,KIYS,≤ 0.2
5,RAAS,0.368
6,RKPE,≤ 0.2
7,SDQC,≤ 0.2
8,QDYV,≤ 0.2
9,AVAG,≤ 0.2
10,GEDF,≤ 0.2
11,RHVE,≤ 0.2
12,SKKM,≤ 0.2
13,CTIN,≤ 0.2
14,YTNH,≤ 0.2
15,RMPT,≤ 0.2
16,APIN,≤ 0.2
17,RKIL,≤ 0.2
18,WPTR,≤ 0.2
19,TLEQ,≤ 0.2
20,SAAY,≤ 0.2
21,NSGT,≤ 0.2
22,KCRS,0.216
23,HWPK,≤ 0.2
24,VNWT,≤ 0.2
25,AAYD,≤ 0.2

row,Variant,one-hybrid fitness for binding NBS DNA
1,FRAG,≤ 0.2
2,KKSF,≤ 0.2
3,TRNQ,≤ 0.2
4,KQIS,≤ 0.2
5,GPWT,≤ 0.2
6,VERQ,≤ 0.2
7,QFLF,≤ 0.2
8,RSTA,≤ 0.2
9,RIWF,≤ 0.2
10,HSIY,≤ 0.2
11,RANR,0.507
12,TDCF,≤ 0.2
13,VPAP,≤ 0.2
14,TTPI,≤ 0.2
15,HAVY,≤ 0.2
16,ICHS,≤ 0.2
17,VVMV,≤ 0.2
18,YVCS,≤ 0.2
19,GNMW,≤ 0.2
20,RFMN,≤ 0.2
21,PVKV,≤ 0.2
22,TVER,≤ 0.2
23,SSKI,≤ 0.2
24,RQFP,≤ 0.2
25,TQFG,≤ 0.2

row,Variant,one-hybrid fitness for binding NBS DNA
1,LRKT,0.328
2,YTSY,≤ 0.2
3,PSLF,≤ 0.2
4,TMQL,≤ 0.2
5,IVNY,≤ 0.2
6,LYET,≤ 0.2
7,ITGR,≤ 0.2
8,TMYY,≤ 0.2
9,RIQE,≤ 0.2
10,KTAR,0.227
11,EFLC,0.352
12,PFKY,≤ 0.2
13,YTCG,≤ 0.2
14,ALSQ,≤ 0.2
15,TFAM,≤ 0.2
16,FANF,≤ 0.2
17,RSPE,≤ 0.2
18,NVEC,≤ 0.2
19,AARY,≤ 0.2
20,MYTY,≤ 0.2
21,DVGG,≤ 0.2
22,GVAT,≤ 0.2
23,QSDV,≤ 0.2
24,VDYY,≤ 0.2
25,AALD,≤ 0.2

row,Variant,one-hybrid fitness for binding NBS DNA
1,MYKR,0.212
2,PKRW,≤ 0.2
3,YMLR,≤ 0.2
4,GLHV,≤ 0.2
5,RIRW,≤ 0.2
6,LNQR,≤ 0.2
7,CYLT,≤ 0.2
8,PCGG,≤ 0.2
9,HPHH,≤ 0.2
10,QHFS,≤ 0.2
11,PTNW,≤ 0.2
12,RQNK,≤ 0.2
13,HFET,≤ 0.2
14,PLKK,≤ 0.2
15,HYKN,≤ 0.2
16,TGMW,≤ 0.2
17,HYYV,≤ 0.2
18,TLLE,≤ 0.2
19,HQIG,≤ 0.2
20,TEKC,≤ 0.2
21,LKES,≤ 0.2
22,QPVE,≤ 0.2
